The supplement of paper PMC4604168 (melanoma cell lines)
The list shows a part of the results. Many values rest on one well or one pass, so single values are uncertain.

Assays:
Assay in all cases: cell count relative to DMSO control; melanoma cells; higher = more viable cells
Details in all cases: library dose: low library concentration; 72 h
MeWo = tested on: MeWo
RPMI7951 = tested on: RPMI7951
RVH-421 = tested on: RVH-421
SkMel28 = tested on: SkMel28
SkMel30 = tested on: SkMel30
SkMel5 = tested on: SkMel5
UACC257 = tested on: UACC257
UACC62 = tested on: UACC62
MZ2-MEL = tested on: MZ2-MEL
SkMel2 = tested on: SkMel2
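Note: cell number obtained by counting DAPI-stained nuclei in high-throughput microscope images with image analysis software, screen run in 1,536-well plates.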

SMILES	cell count (MeWo) [%]	cell count (RPMI7951) [%]	cell count (RVH-421) [%]	cell count (SkMel28) [%]	cell count (SkMel30) [%]	cell count (SkMel5) [%]	cell count (UACC257) [%]	cell count (UACC62) [%]	cell count (MZ2-MEL) [%]	cell count (SkMel2) [%]
COCC[n+]1c2c(n(Cc3cnccn3)c1C)C(=O)c1ccccc1C2=O + CN(C)S(=O)(=O)c1ccc2c(c1)/C(=C/c1cc3c([nH]1)CCCC3)C(=O)N2 [SU6656] (first compound 0.0004 µM, partner dose 0.4 µM)	82	81.6	84.8	79.6	85.5	53.7	89.5	79.8	–	–
Cn1c(Nc2ccc(C(F)(F)F)cc2)nc2cc(Oc3ccnc(-c4ncc(C(F)(F)F)[nH]4)c3)ccc21 + O=c1cc(-c2cccc3c2Sc2ccccc2S3)oc(N2CCOCC2)c1 [KU55933] (first compound 0.08 µM, partner dose 1 µM)	65.1	51.9	80	63	71.7	79.1	41.5	49.6	83	–
O=C(CCCCCCC(=O)Nc1ccccc1)NO [vorinostat] + O=c1cc(-c2cccc3c2Sc2ccccc2S3)oc(N2CCOCC2)c1 [KU55933] (first compound 0.08 µM, partner dose 1 µM)	87.6	94.3	118	79.8	115	97.6	94.2	96.2	98.7	–
O=C(CCCCCCC(=O)Nc1ccccc1)NO [vorinostat] + Cc1ccc(NC(=O)c2cccc(N(C)C)c2)cc1NC(=O)c1ccc(O)cc1 [ZM336372] (first compound 0.08 µM, partner dose 2 µM)	92.6	77.9	87.4	95.7	101	105	88.1	75.8	–	110
Nc1cccc2c1CN(C1CCC(=O)NC1=O)C2=O (stereo not given) [lenalidomide] + O=C1NC(=O)/C(=C/c2ccc(-c3ccc(F)cc3O)o2)S1 [AS252424] (first compound 1 µM, partner dose 1 µM)	102	107	99.5	104	105	99.9	112	102	94.8	–
Nc1cccc2c1CN(C1CCC(=O)NC1=O)C2=O (stereo not given) [lenalidomide] + Oc1cc(-c2nc(-c3ccccc3)[nH]c2-c2ccncc2)ccc1Cl [L779450] (first compound 1 µM, partner dose 0.2 µM)	91.2	91.3	90	85.2	92.6	101	72	70.8	–	–
COCC[n+]1c2c(n(Cc3cnccn3)c1C)C(=O)c1ccccc1C2=O + O=C(O)C(=O)Nc1sc2c(c1C(=O)O)CCNC2 [TCS401] (first compound 0.0004 µM, partner dose 1.66667 µM)	80.2	81.1	111	90.6	103	76.9	96.2	95.8	53.1	–
C#Cc1cccc(Nc2ncnc3cc(OCCOC)c(OCCOC)cc23)c1 [erlotinib] + COC(=O)c1sccc1S(=O)(=O)Nc1ccc(Nc2ccccc2)cc1OC [GSK0660] (first compound 0.8 µM, partner dose 1 µM)	96.9	92.4	128	107	111	113	84.1	98.8	93.3	–
O=C(CCCCCCC(=O)Nc1ccccc1)NO [vorinostat] + CCCCCCCCCCCC1=C(O)C(=O)C=C(O)C1=O [Embelin] (first compound 0.08 µM, partner dose 1.2 µM)	95.8	87.7	115	116	104	79.3	77.7	106	93.3	–
C#Cc1cccc(Nc2ncnc3cc(OCCOC)c(OCCOC)cc23)c1 [erlotinib] + OCCn1cc(-c2cnc3nnn(Cc4ccc5ncccc5c4)c3n2)cn1 [PF04217903] (first compound 0.8 µM, partner dose 1 µM)	88.4	104	89.4	108	113	86.4	101	100	–	98.4
C#Cc1cccc(Nc2ncnc3cc(OCCOC)c(OCCOC)cc23)c1 [erlotinib] + CCc1ccc(CCOc2ccc(CC3SC(=O)NC3=O)cc2)nc1 [pioglitazone] (first compound 0.8 µM, partner dose 2 µM)	98.1	95.7	93.5	96.6	88.9	91.5	87.7	91.1	90.6	–
C#Cc1cccc(Nc2ncnc3cc(OCCOC)c(OCCOC)cc23)c1 [erlotinib] + c1cc(-c2cnn3cc(-c4ccc(OCCN5CCCCC5)cc4)cnc23)ccn1 [Dorsomorphin] (first compound 0.8 µM, partner dose 0.4 µM)	94.4	97.9	96.3	87.3	90.6	88.2	88	81.5	98.7	–
Cn1c(Nc2ccc(C(F)(F)F)cc2)nc2cc(Oc3ccnc(-c4ncc(C(F)(F)F)[nH]4)c3)ccc21 + COc1cc2ncnc(Nc3ccc(Oc4ccccc4)cc3)c2cc1OC [SrcI1] (first compound 0.08 µM, partner dose 2 µM)	73.7	68.1	85.8	56.4	68.3	77.1	42.8	51.4	86.5	–
C#Cc1cccc(Nc2ncnc3cc(OCCOC)c(OCCOC)cc23)c1 [erlotinib] + O=S(=O)(c1ccccc1)N(CC(F)(F)F)c1ccc(C(O)(C(F)(F)F)C(F)(F)F)cc1 [T0901317] (first compound 0.8 µM, partner dose 1.4 µM)	95.9	98.8	93.3	79.8	88	82.4	74.3	91.1	95.6	–
Cn1c(Nc2ccc(C(F)(F)F)cc2)nc2cc(Oc3ccnc(-c4ncc(C(F)(F)F)[nH]4)c3)ccc21 + O=S(=O)(c1ccccc1)N(CC(F)(F)F)c1ccc(C(O)(C(F)(F)F)C(F)(F)F)cc1 [T0901317] (first compound 0.08 µM, partner dose 1.4 µM)	62.6	61.2	77.4	54.5	43.2	73.1	42.1	50.1	59	–
OCc1c[nH]c2ccccc12 [Indole-3-carbinol] + Clc1ccc(Nc2nnc(Cc3ccncc3)c3ccccc23)cc1 [vatalanib] (first compound 0.8 µM, partner dose 2 µM)	79.5	89.6	82.1	81	90	–	–	91.2	–	–
COCC[n+]1c2c(n(Cc3cnccn3)c1C)C(=O)c1ccccc1C2=O + O=S(=O)(c1ccccc1)N(CC(F)(F)F)c1ccc(C(O)(C(F)(F)F)C(F)(F)F)cc1 [T0901317] (first compound 0.0004 µM, partner dose 1.4 µM)	98.3	102	112	97.7	82.3	65.4	94.8	107	58.4	–
C#Cc1cccc(Nc2ncnc3cc(OCCOC)c(OCCOC)cc23)c1 [erlotinib] + O=c1cc(-c2cccc3c2Sc2ccccc2S3)oc(N2CCOCC2)c1 [KU55933] (first compound 0.8 µM, partner dose 1 µM)	91.2	92.5	120	80.1	109	107	72.5	95.7	82.1	–
Cn1c(Nc2ccc(C(F)(F)F)cc2)nc2cc(Oc3ccnc(-c4ncc(C(F)(F)F)[nH]4)c3)ccc21 + Oc1nc(-c2ccc(C(F)(F)F)cc2)nc2c1CSCC2 [XAV939] (first compound 0.08 µM, partner dose 2 µM)	63.8	65.4	69.5	47.4	60.3	78.5	36.2	47.7	81.3	–
Nc1cccc2c1CN(C1CCC(=O)NC1=O)C2=O (stereo not given) [lenalidomide] + O=C(Nc1ccccc1)c1cc([N+](=O)[O-])ccc1Cl [GW9662] (first compound 1 µM, partner dose 2 µM)	94.9	99.2	119	75.6	106	91.8	79.6	83.9	100	–
Nc1cccc2c1CN(C1CCC(=O)NC1=O)C2=O (stereo not given) [lenalidomide] + COc1cc(N2CCC(N3CCN(C)CC3)CC2)ccc1Nc1ncc(Cl)c(Nc2ccccc2S(=O)(=O)C(C)C)n1 [NVP-TAE684] (first compound 1 µM, partner dose 0.08 µM)	88.9	86.7	103	100	107	91.6	85.7	95	–	–
Cn1c(Nc2ccc(C(F)(F)F)cc2)nc2cc(Oc3ccnc(-c4ncc(C(F)(F)F)[nH]4)c3)ccc21 + c1cc(-c2cnn3cc(-c4ccc(OCCN5CCCCC5)cc4)cnc23)ccn1 [Dorsomorphin] (first compound 0.08 µM, partner dose 0.4 µM)	81.4	81.2	46.6	52.9	59.9	74.2	38.7	57	86.3	–
Clc1ccc(Nc2nnc(Cc3ccncc3)c3ccccc23)cc1 [vatalanib] + COc1cc(Nc2ncc(F)c(Nc3ccc4c(n3)NC(=O)C(C)(C)O4)n2)cc(OC)c1OC [Tamatinib] (first compound 2 µM, partner dose 0.4 µM)	82.7	88.6	81.2	91.4	65.8	100	89.8	92	–	93
Cn1c(Nc2ccc(C(F)(F)F)cc2)nc2cc(Oc3ccnc(-c4ncc(C(F)(F)F)[nH]4)c3)ccc21 + O=C1NC(=O)/C(=C/c2ccc(-c3ccc(F)cc3O)o2)S1 [AS252424] (first compound 0.08 µM, partner dose 1 µM)	55.8	57.8	59.8	52.8	57.5	67.2	33.9	47.5	83.7	–
COCC[n+]1c2c(n(Cc3cnccn3)c1C)C(=O)c1ccccc1C2=O + COc1cc(N2CCC(N3CCN(C)CC3)CC2)ccc1Nc1ncc(Cl)c(Nc2ccccc2S(=O)(=O)C(C)C)n1 [NVP-TAE684] (first compound 0.0004 µM, partner dose 0.08 µM)	81.6	61.8	96.1	89.3	112	65.3	92.5	93.8	–	–
Cn1c(Nc2ccc(C(F)(F)F)cc2)nc2cc(Oc3ccnc(-c4ncc(C(F)(F)F)[nH]4)c3)ccc21 + COC(=O)c1sccc1S(=O)(=O)Nc1ccc(Nc2ccccc2)cc1OC [GSK0660] (first compound 0.08 µM, partner dose 1 µM)	68.6	76.3	63.5	56.3	44.9	71	33.5	49.2	79.3	–
Nc1cccc2c1CN(C1CCC(=O)NC1=O)C2=O (stereo not given) [lenalidomide] + COc1cc2c(Oc3ccc4[nH]c(C)cc4c3F)ncnc2cc1OCCCN1CCCC1 [cediranib] (first compound 1 µM, partner dose 0.4 µM)	103	96.5	90.6	114	117	102	106	93.7	–	–
